Read-outs that look alike come from different tables or passages of the source. Starred links: 1 amine or outer side, 2 acyl side, 3 side chain; linkers in the order of their positions; H or OH if unused. Non-standard residues stand in square brackets, D forms with d. Residues, ends and D or L forms follow the SMILES beside them. ξ: configuration not given here. *: point of attachment. ξβ3hAbu(2-oxo,5,5,5-F3) = O=C(C(=O)[*:2])C(CC(F)(F)F)N[*:1]; Phe(F5) = N[C@@H](Cc1c(F)c(F)c(F)c(F)c1F)C(=O)O; Benzoyl(3-COOH) = O=C(O)c1cccc(C(=O)*)c1; Phe(4-Cl) = N[C@@H](Cc1ccc(Cl)cc1)C(=O)O; Phe(4-F) = N[C@@H](Cc1ccc(F)cc1)C(=O)O; dPhg(2-F) = N[C@@H](C(=O)O)c1ccccc1F; Isobutyloxycarbonyl = CC(C)COC(=O)*; N(CH2CH2COOH)Gly = O=C(O)CCNCC(=O)O; X2 = O=C(C(=O)[*:2])C(CC1CC1)N[*:1]; NMeAla(cPr) = CN[CH](CC1CC1)C(=O)O; Ala(cPr) = N[CH](CC1CC1)C(=O)O; X4 = CCCC(N[*:1])C(=O)C(=O)[*:2]; X37 = COC(=O)c1ccc(OC(=O)*)cc1; Gly(cPr) = N[CH](C(=O)O)C1CC1; Chg = N[CH](C(=O)O)C1CCCCC1; Pen = CC(C)(S)[C@H](N)C(=O)O; Phg = N[CH](C(=O)O)c1ccccc1; Tle = CC(C)(C)[C@H](N)C(=O)O; X10 = O=C(O)C1CCCC(C(=O)*)C1; X33 = COC(=O)C(C)(C)COC(=O)*; ξAla(cPr) = NC(CC1CC1)C(=O)O; ξChg = NC(C(=O)O)C1CCCCC1; ξPhg = NC(C(=O)O)c1ccccc1; Boc = CC(C)(C)OC(=O)*; N(Me)OMe = CON(C)*; NHtBu = CC(C)(C)N*; OtBu = CC(C)(C)O*; X15 = C#CCOC(=O)*; X32 = CCOC(=O)C*
Molecular target: Recombinant heterodimeric HCV NS3/NS4A protease (strain 1a) (Hepatitis C virus genotype 1a, UniProt P27958)
Assay: biochemical
Description: Spectrophotometric Assay: Spectrophotometric assay for the HCV serine protease was performed on the inventive compounds by following the procedure described by R. Zhang et al, Analytical Biochemistry, 270 (1999) 268-275, the disclosure of which is incorporated herein by reference. The assay based on the proteolysis of chromogenic ester substrates is suitable for the continuous monitoring of HCV NS3 protease activity. The substrates were derived from the P side of the NS5A-NS5B junction sequence (Ac-DTEDVVX(Nva), where X=A or P) whose C-terminal carboxyl groups were esterified with one of four different chromophoric alcohols (3- or 4-nitrophenol, 7-hydroxy-4-methyl-coumarin, or 4-phenylazophenol). […] Materials and Methods:
Materials: Chemical reagents for assay related buffers were obtained from Sigma Chemical Company (St. Louis, Mo.). Reagents for peptide synthesis were from Aldrich Chemicals, Novabiochem (San Diego, Calif.), Applied Biosystems (Foster City, Calif.) and Perseptive Biosystems (Framingham, Mass.). Peptides were synthesized manually or on an automated ABI model 431A synthesizer (from Applied Biosystems). UV/VIS Spectrometer model LAMBDA 12 was from Perkin Elmer (Norwalk, Conn.) and 96-well UV plates were obtained from Corning (Corning, N.Y.). The prewarming block was from USA Scientific (Ocala, Fla.) and the 96-well plate vortexer was from Labline Instruments (Melrose Park, Ill.). A Spectramax Plus microtiter plate reader with monochrometer was obtained from Molecular Devices (Sunnyvale, Calif.).
Protein concentrations were determined by the Biorad dye method using recombinant HCV protease standards previously quantified by amino acid analysis. Prior to assay initiation, the enzyme storage buffer (50 mM sodium phosphate pH 8.0, 300 mM NaCl, 10% glycerol, 0.05% lauryl maltoside and 10 mM DTT) was exchanged for the assay buffer (25 mM MOPS pH 6.5, 300 mM NaCl, 10% glycerol, 0.05% lauryl maltoside, 5 μM EDTA and 5 μM DTT) utilizing a Biorad Bio-Spin P-6 prepacked column.
Substrate Synthesis and Purification: The synthesis of the substrates was done as reported by R. Zhang et al, (ibid.) and was initiated by anchoring Fmoc-Nva-OH to 2-chlorotrityl chloride resin using a standard protocol (K. Barlos et al, Int. J. Pept. Protein Res., 37 (1991), 513-520). The peptides were subsequently assembled, using Fmoc chemistry, either manually or on an automatic ABI model 431 peptide synthesizer. […] The combined filtrate and DCM wash was evaporated azeotropically (or repeatedly extracted by aqueous Na2CO3 solution) to remove the acid used in cleavage. The DCM phase was dried over Na2SO4 and evaporated.
The ester substrates were assembled using standard acid-alcohol coupling procedures (K. Holmber et al, Acta Chem. Scand., B33 (1979) 410-412). Peptide fragments were dissolved in anhydrous pyridine (30-60 mg/ml) to which 10 molar equivalents of chromophore and a catalytic amount (0.1 eq.) of para-toluenesulfonic acid (pTSA) were added. Dicyclohexylcarbodiimide (DCC, 3 eq.) was added to initiate the coupling reactions. […] Pyridine solvent was evaporated under vacuum and further removed by azeotropic evaporation with toluene. The peptide ester was deprotected with 95% TFA in DCM for two hours and extracted three times with anhydrous ethyl ether to remove excess chromophore. The deprotected substrate was purified by reversed phase HPLC on a C3 or C8 column with a 30% to 60% acetonitrile gradient (using six column volumes).

[1] = Table 3, solid phase compounds, read-out: Ki* CLASS
[2] = HCV protease continuous assay, Table 1, read-out: Ki* Range

SMILES	Ki [2] [nM]	further results
CCCC(NC(=O)CN(CCC(=O)OC(C)(C)C)C(=O)[C@@H](NC(=O)OCC(C)C)C1CCCCC1)C(=O)C(=O)NCC(=O)N[C@H](C(N)=O)c1ccccc1 (stereo partly shown)		Ki [1]: > 1000 nM
CCCC(NC(=O)[C@H](CC(C)C)NC(=O)[C@@H](NC(=O)OCC(C)C)C(C)(C)SCC(=O)OCC)C(=O)C(=O)NCC(=O)N[C@H](C(=O)O)c1ccccc1 (stereo partly shown) [Example 91] (Isobutyloxycarbonyl-[Pen](X32)L[X4]G[Phg]-OH)	101 to 1000	
CCCC(NC(=O)[C@H](CC(C)C)NC(=O)[C@@H](NC(=O)c1cccc(C(=O)O)c1)C1CCCCC1)C(=O)C(=O)NCC(=O)N[C@H](C(=O)O)c1ccccc1 (stereo partly shown) ({Benzoyl(3-COOH)}-[Chg]L[X4]G[Phg]-OH)		Ki [1]: 101 to 1000 nM
CCCC(NC(=O)[C@H](CC(C)C)NC(=O)[C@@H](NC(=O)OCC(C)C)C1CC[S+]([O-])CC1)C(=O)C(=O)NCC(=O)N[C@H](C(=O)O)c1ccccc1 (stereo partly shown) [Example 77]	> 1000	
CCCC(NC(=O)[C@H](Cc1c(F)c(F)c(F)c(F)c1F)NC(=O)[C@@H](NC(=O)OC(C)(C)C)C1CCCCC1)C(=O)C(=O)NCC(=O)NC(C(N)=O)c1ccccc1 (stereo partly shown) [Example 7] (Boc-[Chg][Phe(F5)][X4]G[ξPhg]-NH2)	> 1000	
CCCC(NC(=O)C(CC1SCc2ccccc2CS1)NC(=O)C(NC(=O)OCC(C)C)C1CCCCC1)C(=O)C(=O)NCC(=O)NC(C(=O)O)c1ccccc1 (stereo not shown) [Example 63]	> 1000	
C#CCOC(=O)NC(C(=O)NC(CC1CC1)C(=O)NC(CC1CC1)C(=O)C(=O)NCC(=O)NC(C(=O)O)c1ccccc1)C1CCCCC1 (stereo not shown) [Example 126] (X15-[Chg][Ala(cPr)][X2]G[Phg]-OH; configuration not given here)	< 100	
CC(C)COC(=O)NC(C(=O)NC(CC1CC1)C(=O)NC(CC1CC1)C(=O)C(=O)NCC(=O)NC(C(=O)NC(C)(C)C)c1ccccc1)C1CCCCC1 (stereo not shown) [Example 118] (Isobutyloxycarbonyl-[Chg][Ala(cPr)][X2]G[Phg]-NHtBu; configuration not given here)	101 to 1000	
CCCC(NC(=O)[C@H](CC(C)C)NC(=O)[C@H](C1CCCCC1)N1C(=O)c2ccccc2C1=O)C(=O)C(=O)NCC(=O)N[C@H](C(=O)O)c1ccccc1 (stereo partly shown) [Example 68]	101 to 1000	
CC(C)COC(=O)N[C@H](C(=O)NC(CC1CC1)C(=O)NC(CC1CC1)C(=O)C(=O)NCC(=O)NC(C(=O)OC(C)(C)C)c1ccccc1)C(C)(C)C (stereo partly shown) [Example 121] (Isobutyloxycarbonyl-[Tle][ξAla(cPr)][X2]G[ξPhg]-OtBu)	101 to 1000	
CCCC(NC(=O)[C@H](CC(C)C)NC(=O)[C@@H](NC(=O)c1ccccc1C(=O)O)C1CC[S+]([O-])CC1)C(=O)C(=O)NCC(=O)N[C@H](C(=O)O)c1ccccc1 (stereo partly shown) [Example 80]	101 to 1000	
CCCC(NC(=O)[C@H](CC(C)C)NC(=O)[C@@H](NC(=O)C1CCCC(C(=O)O)C1)C1CCCCC1)C(=O)C(=O)NCC(=O)N[C@H](C(=O)O)c1ccccc1 (stereo partly shown) (X10-[Chg]L[X4]G[Phg]-OH)		Ki [1]: 101 to 1000 nM
CCCC(NC(=O)[C@H](CC(C)C)NC(=O)[C@@H](NC(=O)OCC(C)C)C(C)(C)SC)C(=O)C(=O)NCC(=O)N[C@H](C(=O)O)c1ccccc1 (stereo partly shown) [Example 87] (Isobutyloxycarbonyl-[Pen](Me)L[X4]G[Phg]-OH)	101 to 1000	
C#CCOC(=O)NC(C(=O)NC(CC1CC1)C(=O)NC(CC1CC1)C(=O)C(=O)NCC(=O)NC(C(=O)OC(C)(C)C)c1ccccc1)C1CCCCC1 (stereo not shown) [Example 124] (X15-[Chg][Ala(cPr)][X2]G[Phg]-OtBu; configuration not given here)	101 to 1000	
CC(C)COC(=O)NC(C(=O)N[C@@H](CC1CC1)C(=O)NC(CC1CC1)C(=O)C(=O)NCC(=O)NC(C(=O)OC(C)(C)C)c1ccccc1)C1CCCCC1 (stereo partly shown) [Example 94] (Isobutyloxycarbonyl-[ξChg][Ala(cPr)][X2]G[ξPhg]-OtBu)	101 to 1000	
CC(C)COC(=O)N[C@H](C(=O)N[C@@H](CC(C)C)C(=O)NC(CC(F)(F)F)C(=O)C(=O)NCC(=O)N[C@H](C(N)=O)c1ccccc1)C1CCCCC1 (stereo partly drawn) [Example 14] (Isobutyloxycarbonyl-[Chg]L[ξβ3hAbu(2-oxo,5,5,5-F3)]G[Phg]-NH2)	> 1000	

SMILES	Ki [2] [nM]	further results
CC(C)COC(=O)N[C@H](C(=O)N[C@@H](CC(C)C)C(=O)NC(CC(C)C)[13C](=O)C(=O)NCC(=O)N[C@H](C(=O)OC(C)(C)C)c1ccccc1)C1CCCCC1 (stereo partly shown) [Example 33]	> 1000	
CCCC(NC(=O)[C@H](CC(C)C)NC(=O)[C@@H](NC(=O)OCC(C)C)C1CCN(C(=O)C2CCCC2)CC1)C(=O)C(=O)NCC(=O)N[C@H](C(=O)O)c1ccccc1 (stereo partly shown) [Example 57]	101 to 1000	
CCCC(NC(=O)[C@H](CC(C)C)NC(=O)[C@@H](NC(=O)OCC(C)C)C1CCN(C(C)=O)CC1)C(=O)C(=O)NCC(=O)N[C@H](C(=O)O)c1ccccc1 (stereo partly shown) [Example 54]	101 to 1000	
CCCC(NC(=O)C(CC1OCCCO1)NC(=O)C(NC(=O)OCC(C)C)C1CCCCC1)C(=O)C(=O)NCC(=O)NC(C(=O)OC(C)(C)C)c1ccccc1 (stereo not shown) [Example 60]	> 1000	
CCCC(NC(=O)[C@H](CC(C)C)NC(=O)[C@@H](NC(=O)OC(C)(C)C)C1CCCCC1)C(=O)C(=O)NCC(=O)N[C@@H](C(=O)O)c1ccccc1F (stereo partly shown) [Example 49] (Boc-[Chg]L[X4]G[dPhg(2-F)]-OH)	< 100	
CC(C)COC(=O)NC(C(=O)NC(CC1CC1)C(=O)NC(CC1CC1)C(=O)C(=O)NCC(=O)NC(C(=O)OC(C)(C)C)c1ccccc1)C1CC1 (stereo not shown) [Example 111] (Isobutyloxycarbonyl-[Gly(cPr)][Ala(cPr)][X2]G[Phg]-OtBu; configuration not given here)	101 to 1000	
CCCC(NC(=O)[C@H](CC(C)C)NC(=O)[C@@H](NC(=O)OCC(C)(C)C(=O)OC)C1CCCCC1)C(=O)C(=O)NCC(=O)N[C@H](C(=O)O)c1ccccc1 (stereo partly shown) (X33-[Chg]L[X4]G[Phg]-OH)		Ki [1]: 101 to 1000 nM
CCCC(NC(=O)[C@H](Cc1ccc(Cl)cc1)NC(=O)[C@@H](NC(=O)OCC(C)C)C1CCCCC1)C(=O)C(=O)NCC(=O)N[C@H](C(=O)O)c1ccccc1 (stereo partly shown) [Example 22] (Isobutyloxycarbonyl-[Chg][Phe(4-Cl)][X4]G[Phg]-OH)	> 1000	
CCCC(NC(=O)CN(CCC(=O)O)C(=O)[C@@H](NC(=O)OCC(C)C)C1CCCCC1)C(=O)C(=O)NCC(=O)N[C@H](C(N)=O)c1ccccc1 (stereo partly shown) (Isobutyloxycarbonyl-[Chg][N(CH2CH2COOH)Gly][X4]G[Phg]-NH2)		Ki [1]: > 1000 nM
CCCC(NC(=O)[C@H](Cc1cccc2c1CCCC2)NC(=O)[C@@H](NC(=O)OC(C)(C)C)C1CCCCC1)C(=O)C(=O)NCC(=O)N[C@H](C(=O)O)c1ccccc1 (stereo partly shown) [Example 13]	101 to 1000	
CCCC(NC(=O)[C@H](CC(C)C)NC(=O)[C@@H](NC(=O)Oc1ccc(C(=O)OC)cc1)C1CCCCC1)C(=O)C(=O)NCC(=O)N[C@H](C(=O)O)c1ccccc1 (stereo partly shown) (X37-[Chg]L[X4]G[Phg]-OH)		Ki: 101 to 1000 nM
CCCC(NC(=O)[C@H](Cc1ccc(F)cc1)NC(=O)[C@@H](NC(=O)OCC(C)C)C1CCCCC1)C(=O)C(=O)NCC(=O)N[C@H](C(=O)O)c1ccccc1 (stereo partly shown) [Example 23] (Isobutyloxycarbonyl-[Chg][Phe(4-F)][X4]G[Phg]-OH)	> 1000	
CON(C)C(=O)C(NC(=O)CNC(=O)C(=O)C(CC1CC1)NC(=O)C(CC1CC1)N(C)C(=O)C(NC(=O)OCC(C)C)C1CCCCC1)c1ccccc1 (stereo not shown) [Example 119] (Isobutyloxycarbonyl-[Chg][NMeAla(cPr)][X2]G[Phg]-{N(Me)OMe}; configuration not given here)	101 to 1000	
CCCC(NC(=O)C(CC1CC1)NC(=O)C(NC(=O)OCC(C)C)C1CCCCC1)C(=O)C(=O)NCC(=O)NC(C(=O)O)c1ccccc1 (stereo not shown) [Example 62] (Isobutyloxycarbonyl-[Chg][Ala(cPr)][X4]G[Phg]-OH; configuration not given here)	< 100	
CCCC(NC(=O)[C@H](CC(C)C)NC(=O)[C@@H](NC(=O)OCC(C)C)C1CCN(C(=O)OCC2c3ccccc3-c3ccccc32)CC1)C(=O)C(=O)NCC(=O)N[C@H](C(=O)O)c1ccccc1 (stereo partly shown) [Example 50]	> 1000	

Source: patent publication US7595299B2, “Peptides as NS3-serine protease inhibitors of hepatitis C virus” (priority 2000, dated 2009)
